# Laboratory results: the supplement of paper PMC12217912
# This is one part of the list. Sequences were assembled here from the parent chain. Values near 0.05 are background.
# B1: TEV protease; numbered along this chain (parent)
# chain: MGESLFKGPRDYNPISSSICHLTNESDGHTTSLYGIGFGPFIITNKHLFRRNNGTLVVQSLHGVFKVKDTTTLQQHLVDGRDMIIIRMPKDFPPFPQKLKFREPQREERICLVTTNFQTKSMSSMVSDTSCTFPSGDGIFWKHWIQTKDGQCGSPLVSTRDGFIVGIHSASNFTNTNNYFTSVPKNFMELLTNQEAQQWVSGWRLNADSVLWGGHKVFMVKPEEPFQPVKEATQL
# Variants of: B1
# Assay: raw area under fraction-flipped curve 0-4 h after induction (AUC4h, not background-subtracted), DNA-recorder readout of cleavage of the substrate (dimensionless); higher = more cleavage of the substrate by the protease variant
# Settings: temperature: 34 °C; time window: 0-4 h after rhamnose induction
# Description: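 In vivo DNA recorder in E. coli TOP10(DE3) ΔrhaA at 34 °C. Each TEVp single-site mutant (parent TEVp 0) is paired with a single-site variant of the 7-mer TEVs (canonical ENLYFQ|S). The substrate sits between flexible linkers in a Bxb1-sfGFP-TEVs-SsrA fusion, so cleavage stabilises Bxb1 and speeds flipping of a recombination array, read by NGS. The value is the raw area under the fraction-flipped curve over 0-4 h after rhamnose induction (AUC4h), with ≥20 reads per time point. It is not background-subtracted; inactive controls average about 0.047.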
# 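Further: Bxb1 expression induced with 0.2% (w/v) L-rhamnose at OD600 near 0.5, cultures sampled hourly, flipped fraction per protease–substrate barcode pair counted by paired-end Illumina sequencing.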
Variant,area with substrate ENLYDQS,area with substrate ENLYGQS,area with substrate ENLYHQS,area with substrate ENLYIQS,area with substrate ENLYRQS,area with substrate ENLYSQS,area with substrate ENLYVQS,area with substrate ENLYEQS,area with substrate ENLYKQS,area with substrate ENLYLQS,area with substrate ENLYNQS,area with substrate ENLYTQS,area with substrate ENLYWQS,area with substrate ENLYPQS,area with substrate ENLYYQS,area with substrate ENLYQQS,area with substrate ENLYMQS
MGESLFKGPRDYNPISSSICHLTNESDGHTTSLYGIGFGPFIITNKHLFRRNNGTLVVQSLHGVFKVKDTTTLQQHLVDGRDMIIIRMPKDFPPFPQKLKFREPQREERICLVTTNYQTKSMSSMVSDTSCTFPSGDGIFWKHWIQTKDGQCGSPLVSTRDGFIVGIHSASNFTNTNNYFTSVPKNFMELLTNQEAQQWVSGWRLNADSVLWGGHKVFMVKPEEPFQPVKEATQL [F117Y],0.0604,0.0401,0.0767,0.151,0.0542,0.0818,0.138,,,,,,,,,,
MGESLFKGPRDYNPISSSICHLTNESDGHTTSLYGIGFGPFIITNKHLFRRNNGTLVVQSLHGVFKVKDTTTLQQHLVDGRDMIIIRMPKDFPPFPQKLKFREPQRVERICLVTTNFQTKSMSSMVSDTSCTFPSGDGIFWKHWIQTKDGQCGSPLVSTRDGFIVGIHSASNFTNTNNYFTSVPKNFMELLTNQEAQQWVSGWRLNADSVLWGGHKVFMVKPEEPFQPVKEATQL [E107V],0.0599,,0.0681,0.137,0.0754,,,0.0794,0.0715,0.0991,0.0708,0.0843,0,,,,
MGESLFKGPRDYNPISSSICHLTNESDGHTTSLYGIGFGPFIITNKHLFRRNNGTLVVQSLHGVFKVKDTTTLQQHLVDGRDMIIIRMPKDFPPFPQKLKFREPQRQERICLVTTNFQTKSMSSMVSDTSCTFPSGDGIFWKHWIQTKDGQCGSPLVSTRDGFIVGIHSASNFTNTNNYFTSVPKNFMELLTNQEAQQWVSGWRLNADSVLWGGHKVFMVKPEEPFQPVKEATQL [E107Q],0.0939,0.0709,,,0.0537,0.0833,,0.0549,0.0425,0.078,,0.0613,,0.0771,0.0664,,
MGESLFKGPRDYNPISSSICHLTNESDGHTTSLYGIGFGPFIITNKHLFRRNNGTLVVQSLHGVFKVKDTTTLQQHLVDGRDMIIIRMPKDFPPFPQKLKGREPQREERICLVTTNFQTKSMSSMVSDTSCTFPSGDGIFWKHWIQTKDGQCGSPLVSTRDGFIVGIHSASNFTNTNNYFTSVPKNFMELLTNQEAQQWVSGWRLNADSVLWGGHKVFMVKPEEPFQPVKEATQL [F101G],0.0471,0.0543,0.0465,,,,0.0549,0.0507,,,0.0232,,,,0.0454,,
MGESLFKGPRDYNPISSSICHLTNESDGHTTSLYGIGFGPFIITNKHLFRRNNGTLVVQSLHGVFKVKDTTTLQQHLVDGRDMIIIRMPKDFPPFPQKLKFREPQREERWCLVTTNFQTKSMSSMVSDTSCTFPSGDGIFWKHWIQTKDGQCGSPLVSTRDGFIVGIHSASNFTNTNNYFTSVPKNFMELLTNQEAQQWVSGWRLNADSVLWGGHKVFMVKPEEPFQPVKEATQL [I110W],0.0443,,0.0512,0.0352,0.0596,,0.0639,0.055,,,,,,0.0561,,,
MGESLFKGPRDYNPISSSICHLTNESDGHTTSLYGIGFGPFIITNKHLFRRNNGTLVVQSLHGVFKVKDTTTLQQHLVDGRDMIIIRMPKDFPPPPQKLKFREPQREERICLVTTNFQTKSMSSMVSDTSCTFPSGDGIFWKHWIQTKDGQCGSPLVSTRDGFIVGIHSASNFTNTNNYFTSVPKNFMELLTNQEAQQWVSGWRLNADSVLWGGHKVFMVKPEEPFQPVKEATQL [F95P],0.0776,,0.0457,,0.0395,0.0485,0.0576,0.0516,,,,0.0443,0.0575,0.0351,,0.0516,
MGESLFKGPRDYNPISSSICHLTNESDGHTTSLYGIGFGPFIITNKHLFRRNNGTLVVQSLHGVFKVKDTTTLQQHLVDGRDMIIIRMPKDFPPFPQHLKFREPQREERICLVTTNFQTKSMSSMVSDTSCTFPSGDGIFWKHWIQTKDGQCGSPLVSTRDGFIVGIHSASNFTNTNNYFTSVPKNFMELLTNQEAQQWVSGWRLNADSVLWGGHKVFMVKPEEPFQPVKEATQL [K98H],0.0608,0.0597,0.0681,0.114,,0.0425,0.129,0.0593,0.0654,0.112,0.0664,,,0.0732,,0.0567,0.101
MGESLFKGPRDYNPISSSICHLTNESDGHTTSLYGIGFGPFIITNKHLFRRNNGTLVVQSLHGVFKVKDTTTLQQHLVDGRDMIIIRMPKDFPPFPQKLKFSEPQREERICLVTTNFQTKSMSSMVSDTSCTFPSGDGIFWKHWIQTKDGQCGSPLVSTRDGFIVGIHSASNFTNTNNYFTSVPKNFMELLTNQEAQQWVSGWRLNADSVLWGGHKVFMVKPEEPFQPVKEATQL [R102S],0.0546,0.0462,0.0477,0.0637,0.044,0.0614,0.0508,0.0481,0.0492,,0.0571,,0.0571,0.0461,,0.056,0.0537
MGESLFKGPRDYNPISSSICHLTNESDGHTTSLYGIGFGPFIITNKHLFRRNNGTLVVQSLHGVFKVKDTTTLQQHLVDGRDMIIIRMPKDFPPFPQKLKFLEPQREERICLVTTNFQTKSMSSMVSDTSCTFPSGDGIFWKHWIQTKDGQCGSPLVSTRDGFIVGIHSASNFTNTNNYFTSVPKNFMELLTNQEAQQWVSGWRLNADSVLWGGHKVFMVKPEEPFQPVKEATQL [R102L],0.048,0.0612,0.0589,0.0635,,0.0503,0.0534,0.0503,,,0.0483,,0.0545,0.0392,0.0588,,0.048
MGESLFKGPRDYNPISSSICHLTNESDGHTTSLYGIGFGPFIITNKHLFRRNNGTLVVQSLHGVFKVKDTTTLQQHLVDGRDMIIIRMPKDFPLFPQKLKFREPQREERICLVTTNFQTKSMSSMVSDTSCTFPSGDGIFWKHWIQTKDGQCGSPLVSTRDGFIVGIHSASNFTNTNNYFTSVPKNFMELLTNQEAQQWVSGWRLNADSVLWGGHKVFMVKPEEPFQPVKEATQL [P94L],0.0701,,0.131,,0.0617,,0.116,,0.0516,,,,0.106,,,,
MGESLFKGPRDYNPISSSICHLTNESDGHTTSLYGIGFGPFIITNKHLFRRNNGTLVVQSLHGVFKVKDTTTLQQHLVDGRDMIIIRMPKDFPPFPQKLPFREPQREERICLVTTNFQTKSMSSMVSDTSCTFPSGDGIFWKHWIQTKDGQCGSPLVSTRDGFIVGIHSASNFTNTNNYFTSVPKNFMELLTNQEAQQWVSGWRLNADSVLWGGHKVFMVKPEEPFQPVKEATQL [K100P],0.0528,0.0641,,0.124,0.0534,0.0704,0.101,0.0781,0.101,,0.0807,0.0756,0.0617,0.0745,0.0683,,0.0995
MGESLFKGPRDYNPISSSICHLTNESDGHTTSLYGIGFGPFIITNKHLFRRNNGTLVVQSLHGVFKVKDTTTLQQHLVDGRDMIIIRMPKDFPPFPQKLKFREPQREERIQLVTTNFQTKSMSSMVSDTSCTFPSGDGIFWKHWIQTKDGQCGSPLVSTRDGFIVGIHSASNFTNTNNYFTSVPKNFMELLTNQEAQQWVSGWRLNADSVLWGGHKVFMVKPEEPFQPVKEATQL [C111Q],0.0561,0.0842,0.0803,0.118,,0.0834,0.111,0.0604,0.0326,,0.0434,,0.0975,0.0724,,,0.0878
MGESLFKGPRDYNPISSSICHLTNESDGHTTSLYGIGFGPFIITNKHLFRRNNGTLVVQSLHGVFKVKDTTTLQQHLVDGRDMIIIRMPKDFPPFPQKLKFREPQREEAICLVTTNFQTKSMSSMVSDTSCTFPSGDGIFWKHWIQTKDGQCGSPLVSTRDGFIVGIHSASNFTNTNNYFTSVPKNFMELLTNQEAQQWVSGWRLNADSVLWGGHKVFMVKPEEPFQPVKEATQL [R109A],0.0415,0.0615,0.0812,0.142,0.0646,0.0953,,0.0583,0.0769,0.11,0.0938,,0.0686,,0.0714,,0.091
MGESLFKGPRDYNPISSSICHLTNESDGHTTSLYGIGFGPFIITNKHLFRRNNGTLVVQSLHGVFKVKDTTTLQQHLVDGRDMIIIRMPKDFPPFPQKLKFREPQREESICLVTTNFQTKSMSSMVSDTSCTFPSGDGIFWKHWIQTKDGQCGSPLVSTRDGFIVGIHSASNFTNTNNYFTSVPKNFMELLTNQEAQQWVSGWRLNADSVLWGGHKVFMVKPEEPFQPVKEATQL [R109S],0.0508,0.0868,0.0657,0.0779,,,0.112,0.065,0.0667,0.0599,0.068,,0.0867,0.0974,0.071,,0.0914
MGESLFKGPRDYNPISSSICHLTNESDGHTTSLYGIGFGPFIITNKHLFRRNNGTLVVQSLHGVFKVKDTTTLQQHLVDGRDMIIIRMPKDFPPFPQKLKFREPQREEDICLVTTNFQTKSMSSMVSDTSCTFPSGDGIFWKHWIQTKDGQCGSPLVSTRDGFIVGIHSASNFTNTNNYFTSVPKNFMELLTNQEAQQWVSGWRLNADSVLWGGHKVFMVKPEEPFQPVKEATQL [R109D],0.072,,0.051,0.107,0.0633,,,,0.0616,,0.0663,,,0.0682,0.0609,0.0391,0.124
MGESLFKGPRDYNPISSSICHLTNESDGHTTSLYGIGFGPFIITNKHLFRRNNGTLVVQSLHGVFKVKDTTTLQQHLVDGRDMIIIRMPKDFPPFPQKLKFREPQREERICLVTTNFETKSMSSMVSDTSCTFPSGDGIFWKHWIQTKDGQCGSPLVSTRDGFIVGIHSASNFTNTNNYFTSVPKNFMELLTNQEAQQWVSGWRLNADSVLWGGHKVFMVKPEEPFQPVKEATQL [Q118E],0.0598,,,0.129,0.077,0.0716,0.14,,0.0597,,0.0504,,,0.0807,,,
MGESLFKGPRDYNPISSSICHLTNESDGHTTSLYGIGFGPFIITNKHLFRRNNGTLVVQSLHGVFKVKDTTTLQQHLVDGRDMIIIRMPKDFPPFPQKLKFREPQREERICLVTTGFQTKSMSSMVSDTSCTFPSGDGIFWKHWIQTKDGQCGSPLVSTRDGFIVGIHSASNFTNTNNYFTSVPKNFMELLTNQEAQQWVSGWRLNADSVLWGGHKVFMVKPEEPFQPVKEATQL [N116G],0.0638,0.0576,0.0722,0.112,0.0323,0.0665,0.102,0.106,0.0627,,,,0.0825,0.067,,0.0484,
MGESLFKGPRDYNPISSSICHLTNESDGHTTSLYGIGFGPFIITNKHLFRRNNGTLVVQSLHGVFKVKDTTTLQQHLVDGRDMIIIRMPKDFPPFPQKTKFREPQREERICLVTTNFQTKSMSSMVSDTSCTFPSGDGIFWKHWIQTKDGQCGSPLVSTRDGFIVGIHSASNFTNTNNYFTSVPKNFMELLTNQEAQQWVSGWRLNADSVLWGGHKVFMVKPEEPFQPVKEATQL [L99T],0.0539,0.0601,0.0731,,0.054,,,0.0553,0.06,,0.0765,,,0.0588,,0.0598,
MGESLFKGPRDYNPISSSICHLTNESDGHTTSLYGIGFGPFIITNKHLFRRNNGTLVVQSLHGVFKVKDTTTLQQHLVDGRDMIIIRMPKDFPPFPQKLKFREPQREERICLETTNFQTKSMSSMVSDTSCTFPSGDGIFWKHWIQTKDGQCGSPLVSTRDGFIVGIHSASNFTNTNNYFTSVPKNFMELLTNQEAQQWVSGWRLNADSVLWGGHKVFMVKPEEPFQPVKEATQL [V113E],0.041,0.0621,0.0626,0.0694,0.041,0.0597,0.0706,0.0596,0.0539,0.0642,0.0468,0.0613,0.0634,0.0569,,0.0571,0.0544
